Results: the antibiotic and cytotoxicity screens of Wong et al. (2023)
This is one part of the list.

Assays:
HSkMC = human skeletal muscle cells; assay: cytotoxicity call (relative viability < 0.9); conditions: 10 µM
HepG2 = assay: cytotoxicity call (relative viability < 0.9); conditions: 10 µM
S. aureus RN4220 = assay: growth inhibition call (relative growth <= 0.2); conditions: 50 µM

| SMILES | cytotoxicity call (HSkMC) | cytotoxicity call (HepG2) | growth inhibition call (S. aureus RN4220) |
| --- | --- | --- | --- |
| C[C@H]1CN([C@@H](C)CO)C(=O)Cc2cc(NC(=O)Cc3ccccc3)ccc2O[C@H]1CN(C)Cc1ccc(Oc2ccccc2)cc1 | inactive | active | inactive |
| Cc1ccc(S(=O)(=O)Nc2ccc3c(c2)C(=O)N([C@@H](C)CO)C[C@@H](C)[C@H](CN(C)Cc2ccncc2)OCCCC[C@@H](C)O3)cc1 | inactive | inactive | inactive |
| N=C(NO)c1cccc(C(=N)NO)n1 | inactive | inactive | inactive |
| C[C@H]1CCCCO[C@@H](CN(C)Cc2ccccc2)[C@@H](C)CN([C@@H](C)CO)C(=O)c2cc(NC(=O)Nc3ccccc3)ccc2O1 | inactive | inactive | inactive |
| O=C(C[C@@H]1C[C@@H]2c3cc(NC(=O)NC4CCCC4)ccc3O[C@@H]2[C@H](CO)O1)NCc1ccc(Oc2ccccc2)cc1 | inactive | inactive | inactive |
| C[C@@H]1CN([C@H](C)CO)C(=O)Cc2cc(NS(=O)(=O)c3ccccc3)ccc2O[C@@H]1CN(C)Cc1ccncc1 | inactive | inactive | inactive |
| CC[C@@H](C)N[C@H]1CCS(=O)(=O)C1 | inactive | inactive | inactive |
| O=C(C[C@H]1CC[C@@H]2[C@H](COC[C@H](O)CN2S(=O)(=O)c2ccccc2)O1)N[C@@H]1CCN(Cc2ccccc2)C1 | inactive | inactive | inactive |
| NCC[S@@](=O)c1c(-c2ccc(F)cc2)[nH]c2ccccc12 | inactive | inactive | inactive |
| C[C@@H]1CN([C@@H](C)CO)C(=O)c2cc(NC(=O)Nc3ccc(F)cc3)ccc2O[C@@H]1CN(C)Cc1ccc(Oc2ccccc2)cc1 | active | active | inactive |
